Assay results from the supplement of paper PMC8728848.
The other results are listed elsewhere or left out.

Key:
Assay in all cases: glycan array binding signal (z-score within array); higher = stronger binding
Conditions in all cases: glycan notation: IUPAC condensed, linker removed
[1] = biological target: Neu5Ac(a2-3)Gal(b1-3)GalNAc
Outline: (§1)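 Negative Z-scores can be read as non-binding. The Z-score is calculated within each array and then averaged across arrays of one protein sequence at different concentrations or buffers and across linkers. Arrays, 3228 in all, were curated from the Consortium for Functional Glycomics database and kept only where the protein sequence was available.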

[2] = biological target: Neu5Ac(a2-3)Gal(b1-3)GalNAc(b1-3)Gal(a1-4)Gal(b1-4)Glc
Outline: as §1

[3] = biological target: Neu5Ac(a2-3)Gal(b1-3)GalNAc(b1-4)Gal(b1-4)Glc
Outline: as §1

[4] = biological target: Neu5Ac(a2-3)Gal(b1-3)GalNAc(b1-4)[Neu5Ac(a2-3)]Gal(b1-4)Glc
Outline: as §1

[5] = biological target: Neu5Ac(a2-3)Gal(b1-3)GalNAc(b1-4)[Neu5Ac(a2-8)Neu5Ac(a2-3)]Gal(b1-4)Glc
Outline: as §1

[6] = biological target: Neu5Ac(a2-3)Gal(b1-3)GalNAc6S
Outline: as §1

[7] = biological target: Neu5Ac(a2-3)Gal(b1-3)GlcNAc
Outline: as §1

[8] = biological target: Neu5Ac(a2-3)Gal(b1-3)GlcNAc(b1-2)Man
Outline: as §1

[9] = biological target: Neu5Ac(a2-3)Gal(b1-3)GlcNAc(b1-2)Man(a1-3)[GlcNAc(b1-4)][Neu5Ac(a2-3)Gal(b1-3)GlcNAc(b1-2)Man(a1-6)]Man(b1-4)GlcNAc(b1-4)GlcNAc
Outline: as §1

[10] = biological target: Neu5Ac(a2-3)Gal(b1-3)GlcNAc(b1-2)Man(a1-3)[Neu5Ac(a2-3)Gal(b1-3)GlcNAc(b1-2)Man(a1-6)]Man(b1-4)GlcNAc(b1-4)GlcNAc
Outline: as §1

[11] = biological target: Neu5Ac(a2-3)Gal(b1-3)GlcNAc(b1-2)[Neu5Ac(a2-3)Gal(b1-3)GlcNAc(b1-4)]Man(a1-6)[Neu5Ac(a2-3)Gal(b1-3)GlcNAc(b1-2)Man(a1-3)]Man(b1-4)GlcNAc(b1-4)GlcNAc
Outline: as §1

[12] = biological target: Neu5Ac(a2-3)Gal(b1-3)GlcNAc(b1-3)Gal(b1-3)GlcNAc
Outline: as §1

[13] = biological target: Neu5Ac(a2-3)Gal(b1-3)GlcNAc(b1-3)Gal(b1-4)GlcNAc
Outline: as §1

[14] = biological target: Neu5Ac(a2-3)Gal(b1-3)GlcNAc(b1-3)GalNAc
Outline: as §1

[15] = biological target: Neu5Ac(a2-3)Gal(b1-3)GlcNAc(b1-6)GalNAc
Outline: as §1

[16] = biological target: Neu5Ac(a2-3)Gal(b1-3)GlcNAc6S
Outline: as §1

[17] = biological target: Neu5Ac(a2-3)Gal(b1-3)[Fuc(a1-4)]GlcNAc
Outline: as §1

[18] = biological target: Neu5Ac(a2-3)Gal(b1-3)[Fuc(a1-4)]GlcNAc(b1-3)Gal(b1-3)[Fuc(a1-4)]GlcNAc
Outline: as §1

[19] = biological target: Neu5Ac(a2-3)Gal(b1-3)[Fuc(a1-4)]GlcNAc(b1-3)Gal(b1-4)[Fuc(a1-3)]GlcNAc
Outline: as §1

[20] = biological target: Neu5Ac(a2-3)Gal(b1-3)[GlcNAc(b1-6)]GalNAc
Outline: as §1

[21] = biological target: Neu5Ac(a2-3)Gal(b1-3)[Neu5Ac(a2-6)]GalNAc
Outline: as §1

[22] = biological target: Neu5Ac(a2-3)Gal(b1-3)[Neu5Ac(a2-6)]GlcNAc(b1-3)[Fuc(a1-3)[Gal(b1-4)]GlcNAc(b1-6)]Gal(b1-4)Glc
Outline: as §1

[23] = biological target: Neu5Ac(a2-3)Gal(b1-3)]Neu5Ac(a2-3)Gal(b1-4)]GlcNAc
Outline: as §1

Neu5Ac(a2-3)Gal(b1-4)Glc = biological target: Neu5Ac(a2-3)Gal(b1-4)Glc
Outline: as §1

[24] = biological target: Neu5Ac(a2-3)Gal(b1-4)GlcNAc
Outline: as §1

[25] = biological target: Neu5Ac(a2-3)Gal(b1-4)GlcNAc(b1-2)Man
Outline: as §1

[26] = biological target: Neu5Ac(a2-3)Gal(b1-4)GlcNAc(b1-2)Man(a1-3)[GlcNAc(b1-4)][Neu5Ac(a2-3)Gal(b1-4)GlcNAc(b1-2)Man(a1-6)]Man(b1-4)GlcNAc(b1-4)GlcNAc
Outline: as §1

[27] = biological target: Neu5Ac(a2-3)Gal(b1-4)GlcNAc(b1-2)Man(a1-3)[Neu5Ac(a2-3)Gal(b1-4)GlcNAc(b1-2)Man(a1-6)]Man(b1-4)GlcNAc(b1-4)GlcNAc
Outline: as §1

[28] = biological target: Neu5Ac(a2-3)Gal(b1-4)GlcNAc(b1-2)Man(a1-3)[Neu5Ac(a2-3)Gal(b1-4)GlcNAc(b1-2)Man(a1-6)]Man(b1-4)GlcNAc(b1-4)[Fuc(a1-6)]GlcNAc
Outline: as §1

[29] = biological target: Neu5Ac(a2-3)Gal(b1-4)GlcNAc(b1-2)Man(a1-3)[Neu5Ac(a2-6)Gal(b1-4)GlcNAc(b1-2)Man(a1-6)]Man(b1-4)GlcNAc(b1-4)GlcNAc
Outline: as §1

[30] = biological target: Neu5Ac(a2-3)Gal(b1-4)GlcNAc(b1-2)[Neu5Ac(a2-3)Gal(b1-4)GlcNAc(b1-4)]Man(a1-3)[GlcNAc(b1-4)][Neu5Ac(a2-3)Gal(b1-4)GlcNAc(b1-2)[Neu5Ac(a2-3)Gal(b1-4)GlcNAc(b1-6)]Man(a1-6)]Man(b1-4)GlcNAc(b1-4)GlcNAc
Outline: as §1

[31] = biological target: Neu5Ac(a2-3)Gal(b1-4)GlcNAc(b1-2)[Neu5Ac(a2-3)Gal(b1-4)GlcNAc(b1-4)]Man(a1-3)[GlcNAc(b1-4)][Neu5Ac(a2-3)Gal(b1-4)GlcNAc(b1-4)Man(a1-6)]Man(b1-4)GlcNAc(b1-4)GlcNAc
Outline: as §1

[32] = biological target: Neu5Ac(a2-3)Gal(b1-4)GlcNAc(b1-2)[Neu5Ac(a2-3)Gal(b1-4)GlcNAc(b1-6)]Man(a1-6)[Neu5Ac(a2-3)Gal(b1-4)GlcNAc(b1-2)Man(a1-3)][GlcNAc(b1-4)]Man(b1-4)GlcNAc(b1-4)GlcNAc
Outline: as §1

[33] = biological target: Neu5Ac(a2-3)Gal(b1-4)GlcNAc(b1-3)Gal
Outline: as §1

[34] = biological target: Neu5Ac(a2-3)Gal(b1-4)GlcNAc(b1-3)Gal(b1-3)GlcNAc
Outline: as §1

[35] = biological target: Neu5Ac(a2-3)Gal(b1-4)GlcNAc(b1-3)Gal(b1-4)GlcNAc
Outline: as §1

[36] = biological target: Neu5Ac(a2-3)Gal(b1-4)GlcNAc(b1-3)Gal(b1-4)GlcNAc(b1-2)Man(a1-3)[Neu5Ac(a2-3)Gal(b1-4)GlcNAc(b1-3)Gal(b1-4)GlcNAc(b1-2)Man(a1-6)]Man(b1-4)GlcNAc(b1-4)GlcNAc
Outline: as §1

B1: ClecSol-Fc (Cryptosporidium parvum) (protein)
chain: CPEGWISNGEKTRCFKLVTFDRPRTFSHGFKACNDLGGTEVETRRRNGSKETNEYPVTLASVYKLSDEEAIRRTLVEQGDIHKTANGCFVGLRKYAFFRYPPGWYWIDSGSPVSVRDSEINWTSSYNASWLLRFKFPFEKCGFFDIGGLGRRPCWLIDSELSCAVCGTVAYDSGGLNPNKYSELIKQTDEIISKEPKLDLPGYNNLNCTDAWENNLSVGLCQNVSNILDSAWSSYQSSLNFPSINFNWKEDSTNEGGDQVYHNSYLDLPRYKQKKTFYWDQDPGTIPALSDEMKLIGLSAQPTYHPLDRSSSGSFESDSTESGRANEERNDTLEEMIYKQSSDSIEDILVPVTKPIFSDYSSIGRNSGVEEVYSSNVSTISSKGVVFPNTTTSSDNDFTKNNPANSSKHTSTSTTTNTTTTTTRTTTTTTTTTTTTTTTTTTTTETTTTKKSTTATKNTTTT
- glycan array binding signal (z-score) [1]: -0.168
- glycan array binding signal (z-score) [2]: -0.076
- glycan array binding signal (z-score) [3]: -0.148
- glycan array binding signal (z-score) [4]: -0.187
- glycan array binding signal (z-score) [5]: -0.152
- glycan array binding signal (z-score) [6]: -0.119
- glycan array binding signal (z-score) [7]: 0.014
- glycan array binding signal (z-score) [8]: -0.101
- glycan array binding signal (z-score) [9]: 0.101
- glycan array binding signal (z-score) [10]: 0.094
- glycan array binding signal (z-score) [11]: -0.188
- glycan array binding signal (z-score) [12]: -0.133
- glycan array binding signal (z-score) [13]: -0.22
- glycan array binding signal (z-score) [14]: 0.124
- glycan array binding signal (z-score) [15]: -0.123
- glycan array binding signal (z-score) [16]: -0.037
- glycan array binding signal (z-score) [17]: -0.003
- glycan array binding signal (z-score) [18]: 0.221
- glycan array binding signal (z-score) [19]: -0.075
- glycan array binding signal (z-score) [20]: -0.17
- glycan array binding signal (z-score) [21]: -0.126
- glycan array binding signal (z-score) [22]: -0.212
- glycan array binding signal (z-score) [23]: 0.116
- glycan array binding signal (z-score) (Neu5Ac(a2-3)Gal(b1-4)Glc): -0.051
- glycan array binding signal (z-score) [24]: 0.072
- glycan array binding signal (z-score) [25]: 0.228
- glycan array binding signal (z-score) [26]: -0.175
- glycan array binding signal (z-score) [27]: -0.103
- glycan array binding signal (z-score) [28]: -0.084
- glycan array binding signal (z-score) [29]: 0.029
- glycan array binding signal (z-score) [30]: -0.075
- glycan array binding signal (z-score) [31]: 0.111
- glycan array binding signal (z-score) [32]: -0.149
- glycan array binding signal (z-score) [33]: 0.259
- glycan array binding signal (z-score) [34]: -0.202
- glycan array binding signal (z-score) [35]: -0.059
- glycan array binding signal (z-score) [36]: -0.191
